Laboratory results as given in paper PMC9911399, “Two distinct binding modes provide the RNA-binding protein RbFox with extraordinary sequence specificity”.
Where a chain is given by its changes, count along the chain named. This is one part of the list.

T1: RBFOX1 RRM RbFoxmut (Fox-RRM*) (Homo sapiens, UniProt Q9NWB1 109-208, R118D;E147R;N151S;E152T)
T1 sequence: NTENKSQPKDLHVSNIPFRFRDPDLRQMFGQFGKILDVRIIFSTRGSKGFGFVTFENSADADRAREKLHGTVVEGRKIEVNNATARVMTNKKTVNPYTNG

B1: UAUGCGC (DNA:RNA)
RNA: GGGAGACCGGAAUUCAGAUUGUCCUAUGCGCUUAAAUCCCGUCGUAGCCACCA
DNA 1: CAATCTGAATTCCGGTCTCCC
DNA 2: TGGTGGCTACGACGGGATT
B2: GAUGUAU (DNA:RNA)
RNA: B1 RNA with U25G, C29U, G30A, C31U
DNA 1: CAATCTGAATTCCGGTCTCCC
DNA 2: TGGTGGCTACGACGGGATT
B3: UAGGAGC (DNA:RNA)
RNA: B1 RNA with U27G, C29A
DNA 1: CAATCTGAATTCCGGTCTCCC
DNA 2: TGGTGGCTACGACGGGATT
B4: UCAAUCC (DNA:RNA)
RNA: B1 RNA with A26C, U27A, G28A, C29U, G30C
DNA 1: CAATCTGAATTCCGGTCTCCC
DNA 2: TGGTGGCTACGACGGGATT
B5: UUAAAGC (DNA:RNA)
RNA: B1 RNA with A26U, U27A, G28A, C29A
DNA 1: CAATCTGAATTCCGGTCTCCC
DNA 2: TGGTGGCTACGACGGGATT
B6: CCACUCG (DNA:RNA)
RNA: GGGAGACCGGAAUUCAGAUUGUCCCCACUCGUUAAAUCCCGUCGUAGCCACCA
DNA 1: CAATCTGAATTCCGGTCTCCC
DNA 2: TGGTGGCTACGACGGGATT
B7: ACGUCCC (DNA:RNA)
RNA: B6 RNA with C25A, A27G, C28U, U29C, G31C
DNA 1: CAATCTGAATTCCGGTCTCCC
DNA 2: TGGTGGCTACGACGGGATT
B8: AUUUAAA (DNA:RNA)
RNA: B1 RNA with U25A, A26U, G28U, C29A, G30A, C31A
DNA 1: CAATCTGAATTCCGGTCTCCC
DNA 2: TGGTGGCTACGACGGGATT
B9: UCCCCGA (DNA:RNA)
RNA: B1 RNA with A26C, U27C, G28C, C31A
DNA 1: CAATCTGAATTCCGGTCTCCC
DNA 2: TGGTGGCTACGACGGGATT
B10: GCUCAUA (DNA:RNA)
RNA: B6 RNA with C25G, A27U, U29A, C30U, G31A
DNA 1: CAATCTGAATTCCGGTCTCCC
DNA 2: TGGTGGCTACGACGGGATT
B11: ACAAUGA (DNA:RNA)
RNA: B6 RNA with C25A, C28A, C30G, G31A
DNA 1: CAATCTGAATTCCGGTCTCCC
DNA 2: TGGTGGCTACGACGGGATT
B12: GGCCCGC (DNA:RNA)
RNA: B1 RNA with U25G, A26G, U27C, G28C
DNA 1: CAATCTGAATTCCGGTCTCCC
DNA 2: TGGTGGCTACGACGGGATT
B13: GGAGUUC (DNA:RNA)
RNA: B6 RNA with C25G, C26G, C28G, C30U, G31C
DNA 1: CAATCTGAATTCCGGTCTCCC
DNA 2: TGGTGGCTACGACGGGATT
B14: AAAGAUG (DNA:RNA)
RNA: B6 RNA with C25A, C26A, C28G, U29A, C30U
DNA 1: CAATCTGAATTCCGGTCTCCC
DNA 2: TGGTGGCTACGACGGGATT
B15: GAGUAGC (DNA:RNA)
RNA: B1 RNA with U25G, U27G, G28U, C29A
DNA 1: CAATCTGAATTCCGGTCTCCC
DNA 2: TGGTGGCTACGACGGGATT
B16: UAUACUG (DNA:RNA)
RNA: B1 RNA with G28A, G30U, C31G
DNA 1: CAATCTGAATTCCGGTCTCCC
DNA 2: TGGTGGCTACGACGGGATT
B17: GACACUG (DNA:RNA)
RNA: B1 RNA with U25G, U27C, G28A, G30U, C31G
DNA 1: CAATCTGAATTCCGGTCTCCC
DNA 2: TGGTGGCTACGACGGGATT
B18: AUUUUCC (DNA:RNA)
RNA: B6 RNA with C25A, C26U, A27U, C28U, G31C
DNA 1: CAATCTGAATTCCGGTCTCCC
DNA 2: TGGTGGCTACGACGGGATT
B19: CUGUCUG (DNA:RNA)
RNA: B6 RNA with C26U, A27G, C28U, U29C, C30U
DNA 1: CAATCTGAATTCCGGTCTCCC
DNA 2: TGGTGGCTACGACGGGATT
B20: AUCGUAU (DNA:RNA)
RNA: B6 RNA with C25A, C26U, A27C, C28G, C30A, G31U
DNA 1: CAATCTGAATTCCGGTCTCCC
DNA 2: TGGTGGCTACGACGGGATT
B21: AGGACGG (DNA:RNA)
RNA: B1 RNA with U25A, A26G, U27G, G28A, C31G
DNA 1: CAATCTGAATTCCGGTCTCCC
DNA 2: TGGTGGCTACGACGGGATT
B22: AGAUGAA (DNA:RNA)
RNA: B6 RNA with C25A, C26G, C28U, U29G, C30A, G31A
DNA 1: CAATCTGAATTCCGGTCTCCC
DNA 2: TGGTGGCTACGACGGGATT
B23: UCCCAUG (DNA:RNA)
RNA: B6 RNA with C25U, A27C, U29A, C30U
DNA 1: CAATCTGAATTCCGGTCTCCC
DNA 2: TGGTGGCTACGACGGGATT
B24: UCGCAUG (DNA:RNA)
RNA: B6 RNA with C25U, A27G, U29A, C30U
DNA 1: CAATCTGAATTCCGGTCTCCC
DNA 2: TGGTGGCTACGACGGGATT
B25: UGUGCGC (DNA:RNA)
RNA: B1 RNA with A26G
DNA 1: CAATCTGAATTCCGGTCTCCC
DNA 2: TGGTGGCTACGACGGGATT
B26: AUAUUAC (DNA:RNA)
RNA: B6 RNA with C25A, C26U, C28U, C30A, G31C
DNA 1: CAATCTGAATTCCGGTCTCCC
DNA 2: TGGTGGCTACGACGGGATT
B27: UAGGAGU (DNA:RNA)
RNA: B1 RNA with U27G, C29A, C31U
DNA 1: CAATCTGAATTCCGGTCTCCC
DNA 2: TGGTGGCTACGACGGGATT
B28: GAAGAUU (DNA:RNA)
RNA: B1 RNA with U25G, U27A, C29A, G30U, C31U
DNA 1: CAATCTGAATTCCGGTCTCCC
DNA 2: TGGTGGCTACGACGGGATT
B29: GCGCCAC (DNA:RNA)
RNA: B6 RNA with C25G, A27G, U29C, C30A, G31C
DNA 1: CAATCTGAATTCCGGTCTCCC
DNA 2: TGGTGGCTACGACGGGATT
B30: GUCGGAG (DNA:RNA)
RNA: B6 RNA with C25G, C26U, A27C, C28G, U29G, C30A
DNA 1: CAATCTGAATTCCGGTCTCCC
DNA 2: TGGTGGCTACGACGGGATT
B31: UACCGGG (DNA:RNA)
RNA: B1 RNA with U27C, G28C, C29G, C31G
DNA 1: CAATCTGAATTCCGGTCTCCC
DNA 2: TGGTGGCTACGACGGGATT

Target: T1, RBFOX1 RRM RbFoxmut (Fox-RRM*)
Assay: EMSA; HiTS-Eq, 1 nM pool, 10 min; buffer printed only for the single-RNA assays: 10 mM Tris pH 7.5, 150 mM NaCl, 3.4 mM EDTA, 0.001% NP-40, 30 C
Conditions: tags: His6 N-terminal (pET28a); label: 5' 32P
Summary of the method: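 Purified wild-type or mutant RbFox RRM at increasing concentrations was equilibrated with 1 nM of 5′-radiolabelled RNA carrying 7 randomized nucleotides for 10 min in 50 µL. Unbound RNA was separated by 8% native PAGE and sequenced. Relative association constants came from read-count changes of each RNA species compared with the control reaction, normalised to the cognate motif.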

Q: With B1 as the binder, how does the binding signal read?
A: 0.103 KA relative to UGCAUGU

Q: Which binding signal does the source give for B2 here?
A: 0.143 KA relative to UGCAUGU

Q: Which binding signal does the source give for B3 here?
A: 0.0744 KA relative to UGCAUGU

Q: Which binding signal does the source give for B4 here?
A: 0.0405 KA relative to UGCAUGU

Q: B5 was tested. Which binding signal did it give?
A: 0.0803 KA relative to UGCAUGU

Q: With B6 as the binder, how does the binding signal read?
A: 0.109 KA relative to UGCAUGU

Q: Which binding signal does the source give for B7 here?
A: 0.056 KA relative to UGCAUGU

Q: For B8, which binding signal is on record?
A: 0.144 KA relative to UGCAUGU

Q: For B9, which binding signal is on record?
A: 0.0927 KA relative to UGCAUGU

Q: With B10 as the binder, how does the binding signal read?
A: 0.0964 KA relative to UGCAUGU

Q: How did the binding signal turn out when B11 was run?
A: 0.0966 KA relative to UGCAUGU

Q: How did the binding signal turn out when B12 was run?
A: 0.108 KA relative to UGCAUGU

Q: B13 was tested. Which binding signal did it give?
A: 0.108 KA relative to UGCAUGU

Q: How did the binding signal turn out when B14 was run?
A: 0.0796 KA relative to UGCAUGU

Q: How did the binding signal turn out when B15 was run?
A: 0.108 KA relative to UGCAUGU

Q: With B16 as the binder, how does the binding signal read?
A: 0.0822 KA relative to UGCAUGU

Q: For B17, which binding signal is on record?
A: 0.0456 KA relative to UGCAUGU

Q: How did the binding signal turn out when B18 was run?
A: 0.0544 KA relative to UGCAUGU

Q: B19 was tested. Which binding signal did it give?
A: 0.23 KA relative to UGCAUGU

Q: Which binding signal does the source give for B20 here?
A: 0.154 KA relative to UGCAUGU

Q: How did the binding signal turn out when B21 was run?
A: 0.0928 KA relative to UGCAUGU

Q: Which binding signal does the source give for B22 here?
A: 0.0855 KA relative to UGCAUGU

Q: With B23 as the binder, how does the binding signal read?
A: 0.0994 KA relative to UGCAUGU

Q: For B24, which binding signal is on record?
A: 1.06 KA relative to UGCAUGU

Q: B25 was tested. Which binding signal did it give?
A: 0.144 KA relative to UGCAUGU

Q: How did the binding signal turn out when B26 was run?
A: 0.148 KA relative to UGCAUGU

Q: Which binding signal does the source give for B27 here?
A: 0.105 KA relative to UGCAUGU

Q: How did the binding signal turn out when B28 was run?
A: 0.0675 KA relative to UGCAUGU

Q: Which binding signal does the source give for B29 here?
A: 0.0616 KA relative to UGCAUGU

Q: How did the binding signal turn out when B30 was run?
A: 0.107 KA relative to UGCAUGU

Q: How did the binding signal turn out when B31 was run?
A: 0.0691 KA relative to UGCAUGU
